The other results are listed elsewhere or left out. The list includes weakly bound sequences.

The experiment addresses MaxL homodimer (UniProt P61244). Nature of the experiment: universal protein-binding microarray (PBM). The note with it: PBS-based mixture, 10 nM His-tagged protein dimer, 2% milk, 200 ng/uL BSA, 50 ng/uL salmon testes DNA, 0.02% TX-100; detection with Alexa 488 anti-His …; high values mean tight binding; most listed sequences are background and not binding sites; double strand, one strand shown.
UniProt P61244, sequence (P61244 whole entry): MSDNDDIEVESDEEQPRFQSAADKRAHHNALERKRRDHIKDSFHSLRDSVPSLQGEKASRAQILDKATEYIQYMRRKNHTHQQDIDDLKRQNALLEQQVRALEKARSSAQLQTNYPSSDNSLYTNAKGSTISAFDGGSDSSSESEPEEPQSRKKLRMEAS
On to AGAAGCAA, for which the binding signal (normalized occupancy) stood at 0.0747.

Consider GAAGAACA, for which the binding signal (normalized occupancy) amounted to 0.0777.

For the sequence CCAGGCAC, the binding signal (normalized occupancy) was determined as 0.0765.

Turning to CAGTTCAC, the binding signal (normalized occupancy) is 0.0717.

As to GTCCAACA, the binding signal (normalized occupancy) was determined as 0.0759.

Turning to TCACCAGA, the binding signal (normalized occupancy) came to 0.0742.

As to ACCCTTAA, the binding signal (normalized occupancy) is 0.0759.

Regarding CAACTCGG, the binding signal (normalized occupancy) was found to be 0.0686.

In the case of GACATTCC, the binding signal (normalized occupancy) was 0.0736.

In the case of GGACCAGA, the binding signal (normalized occupancy) was 0.0704.

In the case of AGACGAAG, the binding signal (normalized occupancy) was determined as 0.0673.

Consider ACATGGAT, for which the binding signal (normalized occupancy) amounted to 0.101.

With GGCAGGAC, the binding signal (normalized occupancy) came out at 0.0699.

Take CGGGAGCC: the binding signal (normalized occupancy) was 0.07.

GCACCGTA: the binding signal (normalized occupancy) amounted to 0.0707.

For the sequence AGCGGGCA, the binding signal (normalized occupancy) is 0.0695.

As to ACCCCCTC, the binding signal (normalized occupancy) came to 0.0819.

As for ATACTTGC, the binding signal (normalized occupancy) turned out to be 0.08.

Regarding AGTGAGGG, the binding signal (normalized occupancy) amounted to 0.0773.

Take ACGGTCGC: the binding signal (normalized occupancy) amounted to 0.071.

On to GATGACAC, for which the binding signal (normalized occupancy) was found to be 0.0785.

For CGTAACAC, the binding signal (normalized occupancy) turned out to be 0.0802.

For GGTCTTAA, the binding signal (normalized occupancy) was determined as 0.075.

CGAGAGCG: the binding signal (normalized occupancy) was 0.071.

For CCGAGTTC, the binding signal (normalized occupancy) stood at 0.0705.

Consider CGTAAGCA, for which the binding signal (normalized occupancy) is 0.0776.

On to ATTCGTAG, for which the binding signal (normalized occupancy) amounted to 0.0806.

Take CTGCAGTC: the binding signal (normalized occupancy) is 0.069.

In the case of ACGATTAC, the binding signal (normalized occupancy) amounted to 0.0835.

In the case of CTTTTTAC, the binding signal (normalized occupancy) came out at 0.0753.

Take CTTAACAC: the binding signal (normalized occupancy) amounted to 0.0808.

Take AGACCAAA: the binding signal (normalized occupancy) came to 0.0707.

On to GAGAGCTC, for which the binding signal (normalized occupancy) turned out to be 0.0698.

For the sequence ATACGCCA, the binding signal (normalized occupancy) was 0.0747.

Take CAATGGGC: the binding signal (normalized occupancy) was 0.0697.

Consider TAATCGGA, for which the binding signal (normalized occupancy) is 0.0682.

With CACGTCCA, the binding signal (normalized occupancy) was 0.0876.

Take ACGGTTTG: the binding signal (normalized occupancy) stood at 0.0687.

For ATGCCGAG, the binding signal (normalized occupancy) was 0.0729.

In the case of GCAACTCC, the binding signal (normalized occupancy) was 0.0726.

For AACACTAG, the binding signal (normalized occupancy) was 0.0804.

Take ACCGTACG: the binding signal (normalized occupancy) was 0.0765.

As to CGCCAGAC, the binding signal (normalized occupancy) is 0.0709.

As to ACATCCGG, the binding signal (normalized occupancy) stood at 0.0742.

For the sequence CTCATAAC, the binding signal (normalized occupancy) was 0.0813.

In the case of AGGGTAGG, the binding signal (normalized occupancy) is 0.0754.

Turning to AGCATCTA, the binding signal (normalized occupancy) came to 0.0749.

CGGAGTCA: the binding signal (normalized occupancy) came to 0.0757.

Regarding AGAGCCGA, the binding signal (normalized occupancy) was 0.0723.

Take GCATATTA: the binding signal (normalized occupancy) worked out at 0.0814.

For CCTCCACA, the binding signal (normalized occupancy) amounted to 0.08.

ACCCCGGC: the binding signal (normalized occupancy) amounted to 0.0753.

As to GATTAAGC, the binding signal (normalized occupancy) worked out at 0.0715.

As for CGGACTGA, the binding signal (normalized occupancy) worked out at 0.0701.

For CACTCAAC, the binding signal (normalized occupancy) was found to be 0.0738.

CTTACGGA: the binding signal (normalized occupancy) is 0.0709.

Consider ACAGCGTA, for which the binding signal (normalized occupancy) was 0.0694.

Take GCTGTCAC: the binding signal (normalized occupancy) was found to be 0.0813.

Consider AGAGCTTA, for which the binding signal (normalized occupancy) came out at 0.0748.

In the case of CCAGTGGA, the binding signal (normalized occupancy) amounted to 0.072.

Take GATACTAA: the binding signal (normalized occupancy) amounted to 0.0759.

On to ACAAAGCT, for which the binding signal (normalized occupancy) came to 0.0696.

Consider ATCTACAG, for which the binding signal (normalized occupancy) amounted to 0.0738.

As for CGATTGAC, the binding signal (normalized occupancy) is 0.0757.

Turning to AAAACGGA, the binding signal (normalized occupancy) came to 0.0732.

On to GTGCGAGA, for which the binding signal (normalized occupancy) came out at 0.0815.

Turning to CGAACCAA, the binding signal (normalized occupancy) came out at 0.0713.

For CAAAGGCG, the binding signal (normalized occupancy) is 0.0772.

Regarding ATTTACCG, the binding signal (normalized occupancy) came to 0.0738.

As to AAAAACAG, the binding signal (normalized occupancy) is 0.0754.

In the case of TACGAATA, the binding signal (normalized occupancy) was 0.0783.

With TGGCCAAA, the binding signal (normalized occupancy) turned out to be 0.0757.

As for GAGAAATC, the binding signal (normalized occupancy) is 0.0722.

As to CGAACCGC, the binding signal (normalized occupancy) amounted to 0.0674.

With CTTAGTGC, the binding signal (normalized occupancy) was 0.0762.

With AATAATTG, the binding signal (normalized occupancy) turned out to be 0.0775.

As for ACACACGG, the binding signal (normalized occupancy) is 0.083.

Regarding AAGTACAC, the binding signal (normalized occupancy) is 0.0837.

For AATCGGCC, the binding signal (normalized occupancy) amounted to 0.0674.

With CCACACGG, the binding signal (normalized occupancy) was found to be 0.0835.

In the case of GGACCGCA, the binding signal (normalized occupancy) worked out at 0.0705.

As for TACTGGAA, the binding signal (normalized occupancy) was 0.0727.

Regarding GAGCATGC, the binding signal (normalized occupancy) was 0.113.

CAAACCAC: the binding signal (normalized occupancy) came out at 0.0792.

As for AAGATAGT, the binding signal (normalized occupancy) came out at 0.0795.

TGTGGGAA: the binding signal (normalized occupancy) is 0.0844.

With ATCAGTAG, the binding signal (normalized occupancy) turned out to be 0.0762.

For the sequence CCGTGAAC, the binding signal (normalized occupancy) was 0.0745.

For the sequence GCACATCA, the binding signal (normalized occupancy) came out at 0.0851.

Take CGCCCTAC: the binding signal (normalized occupancy) amounted to 0.0709.

Regarding CTAGTCTA, the binding signal (normalized occupancy) came out at 0.0707.

On to ATACGACC, for which the binding signal (normalized occupancy) is 0.0781.

As for CCAGTCCA, the binding signal (normalized occupancy) is 0.0734.

As to AATACGAA, the binding signal (normalized occupancy) was 0.075.

Turning to AGCCGAGG, the binding signal (normalized occupancy) was found to be 0.0678.

As to CAGGAAGA, the binding signal (normalized occupancy) amounted to 0.0723.

As for AGATTGCA, the binding signal (normalized occupancy) came out at 0.0748.

In the case of CCTTGACG, the binding signal (normalized occupancy) is 0.0731.

For the sequence AACGCATT, the binding signal (normalized occupancy) amounted to 0.0767.

Regarding CACTGCGA, the binding signal (normalized occupancy) turned out to be 0.0739.

Regarding CAGCCGGC, the binding signal (normalized occupancy) was determined as 0.0623.

For ATCTCGAG, the binding signal (normalized occupancy) was found to be 0.0767.

Turning to GAGGGGCA, the binding signal (normalized occupancy) turned out to be 0.0793.

In the case of CCTCGCGC, the binding signal (normalized occupancy) was 0.0791.

On to AGAGGGTC, for which the binding signal (normalized occupancy) came out at 0.0758.

For the sequence CTCACTAA, the binding signal (normalized occupancy) is 0.0787.

Take CTGAAGTA: the binding signal (normalized occupancy) is 0.0676.

On to AGATAAAC, for which the binding signal (normalized occupancy) turned out to be 0.0777.

Regarding ACCGCTTG, the binding signal (normalized occupancy) turned out to be 0.0715.

In the case of GTATTGCA, the binding signal (normalized occupancy) was found to be 0.0814.

Regarding CTCCACAG, the binding signal (normalized occupancy) amounted to 0.0716.

Consider AGGAGCGG, for which the binding signal (normalized occupancy) came out at 0.0698.

GAGACTTA: the binding signal (normalized occupancy) was found to be 0.0723.

On to ACAAGCCC, for which the binding signal (normalized occupancy) came to 0.0761.

Consider AGCTACTA, for which the binding signal (normalized occupancy) is 0.0716.

CCATAGTA: the binding signal (normalized occupancy) stood at 0.0805.

For GGGGCCAC, the binding signal (normalized occupancy) came to 0.0726.

As to CTATGTAA, the binding signal (normalized occupancy) amounted to 0.0767.

With CTTTAGAA, the binding signal (normalized occupancy) was 0.0731.

With CAAACGAC, the binding signal (normalized occupancy) stood at 0.0706.

Regarding AACCCAAG, the binding signal (normalized occupancy) worked out at 0.074.

In the case of GACATGAC, the binding signal (normalized occupancy) was 0.0811.

For the sequence AACCGAGT, the binding signal (normalized occupancy) came out at 0.07.

On to AAAGAATT, for which the binding signal (normalized occupancy) was 0.0678.

For CGCCACTC, the binding signal (normalized occupancy) stood at 0.0736.

Consider AGAGGTTG, for which the binding signal (normalized occupancy) was determined as 0.0687.

On to GGGGTCCA, for which the binding signal (normalized occupancy) came to 0.076.

In the case of AACCCGGC, the binding signal (normalized occupancy) is 0.0653.

With CTCGACTA, the binding signal (normalized occupancy) worked out at 0.0717.

Consider ATTTACAA, for which the binding signal (normalized occupancy) is 0.0755.

In the case of ATGTTGCG, the binding signal (normalized occupancy) worked out at 0.0775.

Take AGACGACT: the binding signal (normalized occupancy) was 0.0701.

In the case of ACATGTGC, the binding signal (normalized occupancy) was determined as 0.197.

As to AAATGCGG, the binding signal (normalized occupancy) came out at 0.0791.

Take GGAATCAA: the binding signal (normalized occupancy) was found to be 0.0733.

Regarding ACAGGTAT, the binding signal (normalized occupancy) is 0.0836.

Turning to CACACTGG, the binding signal (normalized occupancy) worked out at 0.0819.

In the case of AAGGCGCG, the binding signal (normalized occupancy) worked out at 0.0757.

For the sequence CCGCGACC, the binding signal (normalized occupancy) amounted to 0.0691.

Consider TACCCTAA, for which the binding signal (normalized occupancy) stood at 0.0753.

In the case of ACTGGACT, the binding signal (normalized occupancy) was found to be 0.0702.

For CGACTCAG, the binding signal (normalized occupancy) turned out to be 0.0707.

As to GCAGCACC, the binding signal (normalized occupancy) worked out at 0.0745.

As to CAGTGATG, the binding signal (normalized occupancy) came to 0.0746.

As for ATATTATC, the binding signal (normalized occupancy) amounted to 0.0863.

Turning to GAGTTTAC, the binding signal (normalized occupancy) worked out at 0.0732.

Consider AGGGCGGG, for which the binding signal (normalized occupancy) is 0.0768.

With ATGATACC, the binding signal (normalized occupancy) was determined as 0.0795.

For TACCATAA, the binding signal (normalized occupancy) was 0.0783.

For ACTCTGAC, the binding signal (normalized occupancy) is 0.0716.

On to TCATGAAA, for which the binding signal (normalized occupancy) worked out at 0.0788.

As to CGTAGACG, the binding signal (normalized occupancy) stood at 0.0691.

In the case of GGCTGAAC, the binding signal (normalized occupancy) is 0.0689.

For the sequence GGTCCTCA, the binding signal (normalized occupancy) was found to be 0.0714.

For AAAATCGC, the binding signal (normalized occupancy) amounted to 0.0722.

AGCTAGAT: the binding signal (normalized occupancy) turned out to be 0.0759.

In the case of ACTTTGGC, the binding signal (normalized occupancy) is 0.07.

As for AGCGTTGC, the binding signal (normalized occupancy) worked out at 0.0728.

With AAAACCTG, the binding signal (normalized occupancy) came to 0.0774.

For the sequence CATACGAG, the binding signal (normalized occupancy) turned out to be 0.0793.

For CAACGTAC, the binding signal (normalized occupancy) worked out at 0.0758.

Consider CATTACTC, for which the binding signal (normalized occupancy) was determined as 0.0797.

For the sequence GCGCCTAA, the binding signal (normalized occupancy) amounted to 0.0658.

AATGTCAC: the binding signal (normalized occupancy) stood at 0.0807.

Consider CAAGGGGC, for which the binding signal (normalized occupancy) is 0.0772.

Turning to AATGACCG, the binding signal (normalized occupancy) amounted to 0.0732.

For CATTGGAG, the binding signal (normalized occupancy) was determined as 0.07.

With GACCGTTA, the binding signal (normalized occupancy) stood at 0.0732.

As for GAGGGACA, the binding signal (normalized occupancy) worked out at 0.0767.

Consider AAGTAGAT, for which the binding signal (normalized occupancy) worked out at 0.0721.

With ATGGCCAG, the binding signal (normalized occupancy) was 0.0782.

On to TACTATAA, for which the binding signal (normalized occupancy) amounted to 0.0882.

These data come from PMC4242493.
